According to the supplement of paper PMC3334620:
Over roughly 33,000 sequences, “E-score (-0.5 to 0.5)” has its median near -0.016; the highest 2% begin near 0.32. The list shows a part of the results.

molecular target: T1, Stp1 (UniProt B3LFK1); assay: PBM E-score (8-mer binding enrichment) (E-score (-0.5 to 0.5)); higher = stronger / more preferred TF binding; most listed sequences are background and not binding sites; conditions: protein concentration: 200 nM; construct: GST-full length
T1 sequence: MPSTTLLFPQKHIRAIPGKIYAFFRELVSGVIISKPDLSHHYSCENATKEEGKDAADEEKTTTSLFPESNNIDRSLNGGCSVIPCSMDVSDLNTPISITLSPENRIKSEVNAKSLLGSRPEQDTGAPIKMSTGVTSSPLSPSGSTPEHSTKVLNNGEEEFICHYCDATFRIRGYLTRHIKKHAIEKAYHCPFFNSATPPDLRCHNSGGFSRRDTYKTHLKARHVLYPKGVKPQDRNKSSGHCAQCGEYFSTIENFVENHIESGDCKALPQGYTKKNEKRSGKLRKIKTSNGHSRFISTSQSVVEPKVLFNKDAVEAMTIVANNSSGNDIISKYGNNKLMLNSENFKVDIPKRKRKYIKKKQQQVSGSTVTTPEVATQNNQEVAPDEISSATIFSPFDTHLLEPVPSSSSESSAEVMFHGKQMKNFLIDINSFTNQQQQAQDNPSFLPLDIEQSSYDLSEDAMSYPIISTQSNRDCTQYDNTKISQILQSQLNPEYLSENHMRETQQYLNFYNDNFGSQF
How it was run: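 Detection of bound protein used fluorescent anti-GST, with scans normalised by masliner. The proteins were GST-tagged yeast transcription factors applied at about 100-200 nM to universal all-10-mer Agilent arrays made double-stranded by primer extension. Each ungapped eight-base word, pooled with its reverse complement, was scored with an E-score from the Universal PBM Analysis Suite.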

Sequence | PBM E-score
CCGGCGCA | 0.121
CAAGACAC | 0.117
CGTACTCA | 0.146
CGCGACGC | 0.0474
TCAAGCGA | 0.0232
ATTGGTCG | -0.0151
GGGACAGA | -0.233
GATTACAA | 0.172
AAATCCAC | 0.00175
GTTGCACA | 0.0546
CCAACTGA | -0.167
AAACATGT | 0.176
CGTCATAA | -0.125
CCCCAAGG | -0.202
CTGCTTCA | -0.155
CAAAATTA | 0.139
CCCGTCGC | 0.0407
AAACACCC | -0.0828
ACGGAATA | 0.0278
ACGCCGGA | 0.00769
GTACGATA | 0.051
AACGTTTA | -0.104
GCCACTCC | 0.0809
AGCCCGTA | -0.121
ACGAAGAA | 0.192

Sequence | PBM E-score
ATTCACAG | -0.062
ATGAGAGG | -0.118
AGAGCTTG | -0.106
GATAAAAA | 0.121
CCCGTCGA | -0.0127
AAAGTGTC | -0.162
ACTATGGA | -0.213
CCAAGGAA | -0.198
AATTTTGA | 0.3
GATCAGTA | 0.085
AGACTTTG | -0.0142
AGGGGGGG | -0.287
ACTGCTAG | -0.0979
CGAATGAA | -0.0234
GGACAGCA | 0.0785
GAGACCCC | -0.357
ATTTCCTG | 0.0896
CTTTTGCC | 0.286
CCTGGTCG | -0.218
CCAAGTAG | -0.199
CGAGATTC | -0.105
CATGATAC | 0.102
CGTCCCTA | 0.0772
CTGGCTGC | -0.146
AGGCAAGC | -0.0628

Sequence | PBM E-score
ATATACTG | 0.148
ATTTTTTC | 0.229
GCTAGATA | 0.0597
GACACGCA | 0.0631
ACTAAAAG | 0.123
AAGTTACG | -0.0442
AGATCGCG | 0.113
GCAGAAAC | 0.234
GACAGTAC | -0.144
GAGAGCAC | -0.133
CCCCTAGG | -0.323
CGAGAACC | -0.0185
CTAAGAGA | -0.0601
AAGCTGAG | -0.0791
TATAGTCA | 0.0384
GTATGGTA | -0.09
CCAGACTC | -0.192
CGCAATGC | 0.114
ACCACAGT | -0.0128
ATGTTATG | 0.0898
TCAAAGGA | 0.0588
AAGACGGC | 0.318
GAGTGCAA | -0.0337
GAATCTAC | 0.0697
CTTAGTTC | 0.0874

Sequence | PBM E-score
ACCGTTCT | -0.0608
GCAGGTCC | 0.00516
CCAGGACG | -0.209
ACATGACG | -0.00655
CCACGAAC | 0.121
ATTGTAAC | 0.073
CAGGACCC | -0.199
CGCAGTGA | 0.182
GTAGATAC | 0.0705
CACCACTA | 0.0711
CCGGGCCG | 0.138
TATCCAGA | 0.151
ACCGTCTG | -0.138
TCAACTGA | -0.0399
AAATGGTG | 0.119
AGGATAGC | 0.0903
ATAGCGTG | 0.00662
ATTGATTC | 0.265
ACACATGA | 0.00469
AGGCTCTG | 0.0387
TAGAAGGA | -0.185
CACCTTAC | -0.0776
AACAGAAC | 0.0676
CATGACGG | 0.0485
AGCACCTA | -0.162

Sequence | PBM E-score
CGCCATCA | -0.144
GGGGTGTA | -0.188
CGGGTTAA | 0.0609
CGAGATAA | 0.127
CATTACAG | -0.00542
AGGCATAG | 0.15
CCCCGGCA | -0.217
ATAGGTGC | 0.0855
TCGTAGAA | 0.0592
ATGGAATG | -0.0629
ATCTTCGC | 0.107
AAAAGGGG | -0.318
GGAAATAA | 0.195
ATACAGTC | -0.15
AACGCACC | -0.0604
ACTGTATC | -0.0394
ACACCACA | 0.108
ACCCTTGC | -0.177
CGTTGAGA | 0.0693
AGGCTTTC | 0.198
ACAACTTG | -0.0216
ACTATTGG | -0.105
CTATGTCA | 0.0763
CCTAATGA | 0.103
CCCGAGCG | -0.0524

Sequence | PBM E-score
AAGAACCT | -0.0404
ACGGCAAC | 0.455
GATTATGC | -0.0446
GATATAAA | 0.0683
ACGCTCTC | -0.0282
TCATATGA | 0.193
AGAGTGAC | -0.219
GGTATCTA | 0.109
CTAACGTA | 0.0911
GTAATTAA | -0.0546
AATGCCAT | 0.312
AACCGGTT | 0.00128
TCCGCCGA | 0.188
AGAATTAA | 0.0137
AAGCAGCC | -0.0898
GGAAACGA | 0.0539
ACACAGAA | 0.0694
AACCGGGT | 0.0665
GCAGGTCA | -0.215
CAGGTCAG | -0.247
AATCGTTG | -0.0537
CCGCAACC | -0.0571
AGAGGGAA | -0.24
AAATGAGA | 0.082
CACTGAGA | -0.132

Sequence | PBM E-score
ACACATTC | 0.0623
AAGTCATG | -0.15
CGGCAGAG | 0.0271
AGTAAACT | 0.0943
AAATAGGT | 0.0165
AGCGCGTA | 0.159
GCGGACGA | 0.122
ACCTGAAG | -0.118
TGCATACA | 0.0878
CGGTACTA | -0.12
GTAGTCTA | -0.0787
CTACTAAG | -0.0136
AATGTTCT | -0.101
AGAGCATG | -0.155
TAAATTGA | 0.0532
ATCCCGAA | 0.0909
AGACCGGA | -0.00159
ATCCCCTA | -0.387
AATTTCCC | 0.0104
CTTGAAAA | 0.202
AACCGGTC | -0.156
AGATCCGA | -0.0881
